5 sequences from publication PMC10407929 can be followed below.

What all share (assay): pull-down
One assay concerns the target ALYREF (Homo sapiens) (UniProt Q86V81). To be noted: 150 mM NaCl, 50 mM Tris pH 8.0, 0.25% NP-40, 1 mM DTT; 4 C, 2 h; 100 ug nuclear extract; double strand, one strand shown.
A further assay addresses APTX (Homo sapiens) (UniProt Q7Z2E3). Particulars: 150 mM NaCl, 50 mM Tris pH 8.0, 0.25% NP-40, 1 mM DTT, 4 C, 2 h, 100 ug nuclear extract, double strand, one strand shown.
Chain of UniProt Q7Z2E3 (Q7Z2E3 whole entry): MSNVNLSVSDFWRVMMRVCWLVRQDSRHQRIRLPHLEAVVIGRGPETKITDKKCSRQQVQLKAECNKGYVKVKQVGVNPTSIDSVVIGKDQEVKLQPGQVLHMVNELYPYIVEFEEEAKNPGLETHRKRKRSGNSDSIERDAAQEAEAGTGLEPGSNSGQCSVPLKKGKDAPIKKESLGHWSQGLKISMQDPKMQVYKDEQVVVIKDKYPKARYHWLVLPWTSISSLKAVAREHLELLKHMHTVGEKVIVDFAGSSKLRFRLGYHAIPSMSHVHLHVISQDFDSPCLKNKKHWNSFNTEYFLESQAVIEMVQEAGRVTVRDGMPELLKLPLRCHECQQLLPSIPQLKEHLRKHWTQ
In the next assay the target is T1, BANF1 (Homo sapiens) (UniProt O75531).
T1 sequence: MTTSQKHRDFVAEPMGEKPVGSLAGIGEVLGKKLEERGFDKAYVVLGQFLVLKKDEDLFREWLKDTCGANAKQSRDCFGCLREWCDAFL
Particulars: 150 mM NaCl, 50 mM Tris pH 8.0, 0.25% NP-40, 1 mM DTT, 4 C, 2 h, 100 ug nuclear extract, double strand, one strand shown.

A further assay deals with BCORL1 (Homo sapiens) (UniProt Q5H9F3). Particulars: 150 mM NaCl, 50 mM Tris pH 8.0, 0.25% NP-40, 1 mM DTT; 4 C, 2 h; 100 ug nuclear extract; double strand, one strand shown.
Chain of UniProt Q5H9F3 (Q5H9F3 whole entry): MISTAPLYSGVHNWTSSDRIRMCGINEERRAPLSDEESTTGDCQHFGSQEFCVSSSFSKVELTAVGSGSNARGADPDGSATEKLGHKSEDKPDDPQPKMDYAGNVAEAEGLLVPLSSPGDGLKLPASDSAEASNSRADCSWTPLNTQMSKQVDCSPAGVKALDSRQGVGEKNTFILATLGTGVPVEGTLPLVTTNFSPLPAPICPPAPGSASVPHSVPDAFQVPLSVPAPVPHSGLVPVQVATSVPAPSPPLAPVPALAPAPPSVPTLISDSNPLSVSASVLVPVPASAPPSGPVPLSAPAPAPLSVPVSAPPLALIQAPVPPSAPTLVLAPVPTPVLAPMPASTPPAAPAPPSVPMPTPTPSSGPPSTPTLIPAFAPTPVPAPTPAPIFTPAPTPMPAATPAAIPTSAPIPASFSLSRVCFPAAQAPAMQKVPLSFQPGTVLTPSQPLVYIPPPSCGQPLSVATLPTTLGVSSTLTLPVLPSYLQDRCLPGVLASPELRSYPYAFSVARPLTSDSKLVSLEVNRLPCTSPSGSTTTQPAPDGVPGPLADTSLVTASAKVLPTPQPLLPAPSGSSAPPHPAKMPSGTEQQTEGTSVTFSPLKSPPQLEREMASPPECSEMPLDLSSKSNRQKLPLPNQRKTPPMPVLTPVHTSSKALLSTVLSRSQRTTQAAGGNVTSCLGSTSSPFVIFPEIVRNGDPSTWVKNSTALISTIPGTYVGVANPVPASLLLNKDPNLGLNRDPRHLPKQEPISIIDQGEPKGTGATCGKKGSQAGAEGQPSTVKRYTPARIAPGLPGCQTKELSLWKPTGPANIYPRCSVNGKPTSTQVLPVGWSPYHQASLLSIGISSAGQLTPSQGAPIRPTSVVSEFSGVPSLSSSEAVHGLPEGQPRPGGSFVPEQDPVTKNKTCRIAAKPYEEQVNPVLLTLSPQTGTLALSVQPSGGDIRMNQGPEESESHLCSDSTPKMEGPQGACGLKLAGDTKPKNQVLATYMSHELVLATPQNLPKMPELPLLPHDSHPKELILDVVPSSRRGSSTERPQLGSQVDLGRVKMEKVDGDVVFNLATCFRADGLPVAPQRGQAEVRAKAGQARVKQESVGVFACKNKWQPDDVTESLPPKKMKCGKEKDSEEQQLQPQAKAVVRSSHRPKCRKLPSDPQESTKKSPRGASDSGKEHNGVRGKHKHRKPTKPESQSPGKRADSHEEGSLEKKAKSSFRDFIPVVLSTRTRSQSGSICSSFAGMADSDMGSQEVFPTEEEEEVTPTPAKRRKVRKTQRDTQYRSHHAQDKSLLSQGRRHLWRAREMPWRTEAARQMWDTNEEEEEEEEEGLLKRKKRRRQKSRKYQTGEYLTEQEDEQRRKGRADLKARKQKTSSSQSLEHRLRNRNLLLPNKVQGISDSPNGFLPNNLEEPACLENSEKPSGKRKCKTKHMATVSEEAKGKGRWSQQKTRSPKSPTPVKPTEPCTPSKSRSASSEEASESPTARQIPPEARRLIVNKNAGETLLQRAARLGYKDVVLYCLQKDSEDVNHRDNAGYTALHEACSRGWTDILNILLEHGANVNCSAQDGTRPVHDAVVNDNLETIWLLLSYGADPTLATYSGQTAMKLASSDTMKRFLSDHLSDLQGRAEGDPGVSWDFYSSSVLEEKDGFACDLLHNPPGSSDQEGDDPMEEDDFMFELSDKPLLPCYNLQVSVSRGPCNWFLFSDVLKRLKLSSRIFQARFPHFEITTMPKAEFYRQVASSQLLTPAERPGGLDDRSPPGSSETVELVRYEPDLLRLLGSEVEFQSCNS
In another assay the target is T2, CETN2 (Homo sapiens) (UniProt P41208).
T2 sequence: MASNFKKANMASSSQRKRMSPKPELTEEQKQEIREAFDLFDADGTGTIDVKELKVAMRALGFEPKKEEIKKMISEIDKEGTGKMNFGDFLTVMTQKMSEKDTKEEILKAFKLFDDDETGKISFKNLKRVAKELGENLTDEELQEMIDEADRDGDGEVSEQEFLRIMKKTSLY
Particulars: 150 mM NaCl, 50 mM Tris pH 8.0, 0.25% NP-40, 1 mM DTT; 4 C, 2 h; 100 ug nuclear extract; double strand, one strand shown.

Another assay addresses T3, CXXC5 (Homo sapiens) (UniProt Q7LFL8).
T3 sequence: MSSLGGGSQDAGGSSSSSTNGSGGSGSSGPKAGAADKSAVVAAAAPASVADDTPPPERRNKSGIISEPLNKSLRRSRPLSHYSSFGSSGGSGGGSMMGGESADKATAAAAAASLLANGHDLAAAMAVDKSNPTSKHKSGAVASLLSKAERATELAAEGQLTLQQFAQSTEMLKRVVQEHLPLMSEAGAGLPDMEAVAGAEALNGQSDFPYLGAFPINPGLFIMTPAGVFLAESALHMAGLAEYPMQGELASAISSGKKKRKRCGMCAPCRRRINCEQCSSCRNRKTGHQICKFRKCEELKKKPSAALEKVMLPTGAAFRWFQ
To be noted: 150 mM NaCl, 50 mM Tris pH 8.0, 0.25% NP-40, 1 mM DTT; 4 C, 2 h; 100 ug nuclear extract; double strand, one strand shown.

In another assay the target is DDB1 (Homo sapiens) (UniProt Q16531). To be noted: 150 mM NaCl, 50 mM Tris pH 8.0, 0.25% NP-40, 1 mM DTT, 4 C, 2 h, 100 ug nuclear extract, double strand, one strand shown.
The target of another assay is T4, DDB2 (Homo sapiens) (UniProt Q92466).
T4 sequence: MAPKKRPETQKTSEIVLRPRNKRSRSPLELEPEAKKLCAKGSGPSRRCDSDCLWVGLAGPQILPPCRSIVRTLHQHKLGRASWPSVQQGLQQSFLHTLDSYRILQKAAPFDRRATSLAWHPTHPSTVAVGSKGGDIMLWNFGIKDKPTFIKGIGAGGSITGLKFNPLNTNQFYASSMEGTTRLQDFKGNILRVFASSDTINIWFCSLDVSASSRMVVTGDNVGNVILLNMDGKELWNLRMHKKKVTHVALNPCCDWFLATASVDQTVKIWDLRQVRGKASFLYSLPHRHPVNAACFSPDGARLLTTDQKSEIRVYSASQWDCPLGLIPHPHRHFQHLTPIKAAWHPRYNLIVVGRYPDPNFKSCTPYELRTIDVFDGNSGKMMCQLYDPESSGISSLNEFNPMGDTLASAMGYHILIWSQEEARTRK
Particulars: 150 mM NaCl, 50 mM Tris pH 8.0, 0.25% NP-40, 1 mM DTT, 4 C, 2 h, 100 ug nuclear extract, double strand, one strand shown.

A further assay deals with BCOR (Homo sapiens) (UniProt Q6W2J9). To be noted: 150 mM NaCl, 50 mM Tris pH 8.0, 0.25% NP-40, 1 mM DTT; 4 C, 2 h; 100 ug nuclear extract; double strand, one strand shown.
Chain of UniProt Q6W2J9 (Q6W2J9 whole entry): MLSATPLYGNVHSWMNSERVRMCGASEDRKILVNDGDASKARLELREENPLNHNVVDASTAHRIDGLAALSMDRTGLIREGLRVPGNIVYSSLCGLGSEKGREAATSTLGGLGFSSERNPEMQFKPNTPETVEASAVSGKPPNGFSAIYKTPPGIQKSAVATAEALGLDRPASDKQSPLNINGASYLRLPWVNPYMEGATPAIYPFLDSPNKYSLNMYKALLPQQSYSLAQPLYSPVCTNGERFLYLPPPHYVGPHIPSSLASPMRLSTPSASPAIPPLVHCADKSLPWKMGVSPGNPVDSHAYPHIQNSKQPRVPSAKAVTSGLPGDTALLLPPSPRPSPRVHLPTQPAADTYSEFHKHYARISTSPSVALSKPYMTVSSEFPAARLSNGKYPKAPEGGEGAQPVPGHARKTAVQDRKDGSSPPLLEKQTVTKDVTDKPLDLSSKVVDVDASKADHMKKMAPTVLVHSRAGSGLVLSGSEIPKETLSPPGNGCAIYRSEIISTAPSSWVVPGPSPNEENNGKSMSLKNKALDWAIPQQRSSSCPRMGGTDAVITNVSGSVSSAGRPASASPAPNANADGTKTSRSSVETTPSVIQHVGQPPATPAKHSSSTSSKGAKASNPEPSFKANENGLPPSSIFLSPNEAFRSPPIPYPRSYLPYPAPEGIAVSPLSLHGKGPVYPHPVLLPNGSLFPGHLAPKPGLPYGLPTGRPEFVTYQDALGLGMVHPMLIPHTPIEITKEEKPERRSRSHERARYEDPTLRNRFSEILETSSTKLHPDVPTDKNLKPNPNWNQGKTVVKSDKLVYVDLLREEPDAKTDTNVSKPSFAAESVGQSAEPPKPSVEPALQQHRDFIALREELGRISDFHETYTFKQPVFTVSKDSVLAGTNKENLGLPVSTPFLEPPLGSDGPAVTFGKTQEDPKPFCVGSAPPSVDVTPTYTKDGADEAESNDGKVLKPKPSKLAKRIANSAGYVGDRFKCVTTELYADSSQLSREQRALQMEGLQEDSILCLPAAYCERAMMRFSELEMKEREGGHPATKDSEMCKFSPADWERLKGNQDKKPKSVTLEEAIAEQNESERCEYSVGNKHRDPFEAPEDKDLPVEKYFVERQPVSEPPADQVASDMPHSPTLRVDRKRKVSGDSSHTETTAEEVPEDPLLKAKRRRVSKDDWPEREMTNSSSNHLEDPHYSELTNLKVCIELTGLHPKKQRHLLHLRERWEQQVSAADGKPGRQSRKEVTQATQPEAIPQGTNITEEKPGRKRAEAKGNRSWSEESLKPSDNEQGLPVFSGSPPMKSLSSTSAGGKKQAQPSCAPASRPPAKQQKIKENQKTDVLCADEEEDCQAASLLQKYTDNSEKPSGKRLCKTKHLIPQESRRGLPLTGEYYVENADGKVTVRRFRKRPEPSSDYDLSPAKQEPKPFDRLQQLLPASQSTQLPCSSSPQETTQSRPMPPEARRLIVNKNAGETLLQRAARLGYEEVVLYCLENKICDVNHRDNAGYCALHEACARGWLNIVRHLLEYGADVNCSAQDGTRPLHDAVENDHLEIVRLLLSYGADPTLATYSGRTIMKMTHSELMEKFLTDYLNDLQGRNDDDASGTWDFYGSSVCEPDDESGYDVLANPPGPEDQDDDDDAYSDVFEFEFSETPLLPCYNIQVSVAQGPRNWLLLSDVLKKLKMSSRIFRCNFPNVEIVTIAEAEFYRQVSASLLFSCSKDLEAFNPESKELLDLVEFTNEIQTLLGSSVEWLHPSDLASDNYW
The target in a further assay is CREB1 (UniProt P16220). Particulars: 150 mM NaCl, 50 mM Tris pH 8.0, 0.25% NP-40, 1 mM DTT; 4 C, 2 h; 100 ug nuclear extract; double strand, one strand shown.
Chain of UniProt P16220 (P16220 other isoform, or with tags, fused parts or gaps): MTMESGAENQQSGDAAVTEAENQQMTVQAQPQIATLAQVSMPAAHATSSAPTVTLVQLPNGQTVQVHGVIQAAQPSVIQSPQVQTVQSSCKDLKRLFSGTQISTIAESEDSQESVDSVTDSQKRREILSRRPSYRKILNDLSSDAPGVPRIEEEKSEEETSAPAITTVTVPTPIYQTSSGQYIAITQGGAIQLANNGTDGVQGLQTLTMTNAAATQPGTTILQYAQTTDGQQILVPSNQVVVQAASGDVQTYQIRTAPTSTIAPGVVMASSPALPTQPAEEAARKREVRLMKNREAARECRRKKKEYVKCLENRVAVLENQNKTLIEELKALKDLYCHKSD
Where [1] appears, read: 5mC at 15,17 (strand 1), 5mC at 14,16 (strand 2).

This is one part of the list. The protein was read in a cell extract, so binding may be indirect.

With “GCCGCCGCCCTTCTCGCGAGACTGCCGGGCC [CGCG bait]”, the half-maximal binding with ALYREF (Homo sapiens) stood at 317 nM; with APTX (Homo sapiens), 165 nM; in the assay with BANF1 (Homo sapiens), 223 nM; with BCORL1 (Homo sapiens), 229 nM; with CETN2 (Homo sapiens), 129 nM; in the assay with CXXC5 (Homo sapiens), 200 nM. The half-maximal binding with DDB1 (Homo sapiens) came to 338 nM; in the assay with DDB2 (Homo sapiens) it was 320 nM.

For the sequence “GAGAGAAAATAAAACTGGCT [SP/KLF negative control bait]”, the half-maximal binding in the assay with APTX (Homo sapiens) was determined as 500 nM; with BANF1 (Homo sapiens) it was 633 nM.

As for GAGAGCCCCGCCCCCTGGCT [SP/KLF bait], the figures for the half-maximal binding with BANF1 (Homo sapiens) and in the assay with DDB1 (Homo sapiens) were 245 nM and 101 nM, respectively.

Take “GCCGCCGCCCTTCTCGCGAGACTGCCGGGCC [methylated CGCG bait]”: the half-maximal binding is 113 nM in the assay with APTX (Homo sapiens) (setting [1]), 191 nM with BANF1 (Homo sapiens) (setting [1]), 198 nM in the assay with DDB1 (Homo sapiens) (setting [1]) and 185 nM in the assay with DDB2 (Homo sapiens) (setting [1]).

Take “GCCGCCGCCCTCCCACGCGCTGCCGGGCC [BEND3 bait]”: the half-maximal binding with APTX (Homo sapiens) came to 191 nM; with BANF1 (Homo sapiens), 301 nM; in the assay with BCOR (Homo sapiens) it was 546 nM; with CREB1, 238 nM; with DDB1 (Homo sapiens), 266 nM.
